According to PMC3923519 (Structure (London, England : 1993), 2013):

Biological target: bromodomain-PHD finger tandem module of human CBP (residues 1081-1316) (human, UniProt Q92793 1081-1316)
Experiment: crystal structure

UniProt Q92793, sequence (Q92793 1081-1316): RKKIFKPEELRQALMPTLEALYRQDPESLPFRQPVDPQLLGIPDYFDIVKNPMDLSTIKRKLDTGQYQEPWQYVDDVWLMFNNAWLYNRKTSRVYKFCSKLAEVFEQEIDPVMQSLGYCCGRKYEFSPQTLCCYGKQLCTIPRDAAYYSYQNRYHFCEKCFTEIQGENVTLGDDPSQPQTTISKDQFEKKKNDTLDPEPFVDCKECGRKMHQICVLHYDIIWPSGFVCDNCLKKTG

B1: histone H4K12ac/K16ac peptide ([…]) (peptide)
peptide: not shown
modifications: acetyl-lysine at 12 and at 16 (Kac)
- binding result: binds
